# Article PMC4336329 (PLoS ONE, 2015)
# Hit rate of the full screen: of about 310,000 compounds, about 2,200 (0.71%) showed an effect of 50% or more. Effects have a minus sign here. The list shows a part of the results.
# Molecular target: human ether-à-go-go-related gene (hERG) potassium channel (human, UniProt Q12809)
# Assay: primary screen, population patch clamp on CHO cells stably expressing hERG
# human ether-à-go-go-related gene (hERG) potassium channel, sequence (Q12809 whole entry, looked up): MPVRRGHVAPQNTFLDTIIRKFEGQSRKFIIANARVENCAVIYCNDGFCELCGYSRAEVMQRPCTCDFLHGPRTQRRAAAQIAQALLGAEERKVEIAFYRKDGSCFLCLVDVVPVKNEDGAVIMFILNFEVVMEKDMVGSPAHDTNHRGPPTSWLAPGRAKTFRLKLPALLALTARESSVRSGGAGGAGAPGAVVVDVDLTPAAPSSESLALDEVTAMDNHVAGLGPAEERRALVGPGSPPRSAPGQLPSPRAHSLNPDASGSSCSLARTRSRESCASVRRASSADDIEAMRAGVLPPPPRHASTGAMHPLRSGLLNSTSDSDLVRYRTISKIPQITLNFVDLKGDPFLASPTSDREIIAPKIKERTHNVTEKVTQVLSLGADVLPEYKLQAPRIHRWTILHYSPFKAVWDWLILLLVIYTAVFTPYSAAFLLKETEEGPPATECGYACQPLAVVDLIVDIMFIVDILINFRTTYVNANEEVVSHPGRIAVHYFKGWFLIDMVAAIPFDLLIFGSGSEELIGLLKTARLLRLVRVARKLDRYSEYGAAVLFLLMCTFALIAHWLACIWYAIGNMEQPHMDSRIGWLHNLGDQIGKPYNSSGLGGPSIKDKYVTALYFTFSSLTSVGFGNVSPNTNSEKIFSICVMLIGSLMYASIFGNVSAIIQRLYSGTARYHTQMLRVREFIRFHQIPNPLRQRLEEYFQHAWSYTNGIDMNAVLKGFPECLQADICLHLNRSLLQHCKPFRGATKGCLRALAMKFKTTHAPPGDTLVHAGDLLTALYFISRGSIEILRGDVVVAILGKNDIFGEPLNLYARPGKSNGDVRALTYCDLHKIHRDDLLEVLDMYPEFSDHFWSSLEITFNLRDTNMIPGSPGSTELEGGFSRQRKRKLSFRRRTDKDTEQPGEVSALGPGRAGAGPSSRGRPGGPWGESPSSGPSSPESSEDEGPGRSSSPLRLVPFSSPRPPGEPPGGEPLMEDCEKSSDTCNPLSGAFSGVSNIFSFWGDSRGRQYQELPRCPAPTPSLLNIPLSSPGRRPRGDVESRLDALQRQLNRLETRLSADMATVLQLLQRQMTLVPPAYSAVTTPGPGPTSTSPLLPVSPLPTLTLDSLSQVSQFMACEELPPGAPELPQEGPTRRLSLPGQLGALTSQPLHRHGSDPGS
row,SMILES,"hERG current change (%, negative = inhibition) at 1uM"
1,CCC(C)NC(=O)COC(=O)c1cccnc1Nc1ccccc1F (stereo not shown),12.5%
2,Cn1c(=O)n(C)c2cc(NC(=O)c3cc4ccccc4o3)ccc21,0.707%
3,Cc1ccc(C)c(NC(=S)N/N=C2\CCc3ccccc32)c1,8.65%
4,O=C(Nc1cccnc1)c1ccccc1Oc1ccccc1,7.62%
5,CCOc1cccc(/C=C/c2ccc3cccc(O)c3n2)c1O,12%
6,OCCN1CCN(C(=S)Nc2ccccc2)CC1,4.66%
7,CCC(NS(=O)(=O)c1cnn(CC)c1)c1ccccc1 (stereo not shown),24.3%
8,O=[N+]([O-])c1cc(/C=N/O)ccc1Sc1ccccc1,3.86%
9,CCc1c(C)nc2ncnn2c1NCCc1ccc(Cl)cc1,-2.06%
10,CS(=O)(=O)c1[nH]nc(-c2cccc(Cl)c2)c1C#N,11%
11,CCc1ccc(OCCOCC(O)CNC(C)CC)cc1.Cl (stereo not shown),4.27%
12,O=C(CCC(=O)OCC(=O)c1ccccc1)Nc1cccc(Cl)c1,5.37%
13,CSc1nc(O)c(C(c2ccccc2)c2c(O)nc(SC)[nH]c2=O)c(=O)[nH]1,13.3%
14,CCn1c(C(C#N)/C(=N\S(=O)(=O)c2cccs2)c2ccccc2)nc2ccccc21 (stereo not shown),12.1%
15,CCn1c(SCC(=O)Nc2nc3ccc(OC)cc3s2)nc2c1c(=O)n(C)c(=O)n2C,-28.1%
16,O=C(Nc1cccc(Cl)c1)NC1CCS(=O)(=O)C1 (stereo not shown),12.9%
17,CS(=O)(=O)N(CC(=O)Nc1ccc2c(c1)OCO2)c1ccccc1,13.8%
18,CC(C)=CCC1=C(OCC(=O)O)C(=O)c2ccccc2C1=O,7.91%
19,Cc1ccc(CNc2ncnc3cc(Cl)ccc23)o1,5.91%
20,COc1cccc(NC(=O)COc2coc(CN3CCN(c4ccccc4)CC3)cc2=O)c1,13.8%
21,CCOc1ccccc1NC1=C(Cl)C(=O)N(c2ccc(OC)cc2)C1=O,-0.465%
22,Oc1ccc(C=NC2CCCCC2)c(O)c1,15.2%
23,C=CCn1c(-c2cccn(Cc3ccc(Cl)cc3)c2=O)n[nH]c1=S,11.2%
24,COC(=O)c1scc(S(=O)(=O)C(C)(C)C)c1-n1cccc1,10.2%

row,SMILES,"hERG current change (%, negative = inhibition) at 1uM"
1,COCCSc1nnc(NC(=O)CCS(=O)(=O)Cc2ccccc2)s1,4.79%
2,Cc1ccc(OCC(=O)N2CCCCC2)c(Br)c1,-6.22%
3,CCCCSCCCNC(=O)c1cn(CC)c2ccc(S(=O)(=O)N3CCOCC3)cc2c1=O,2.98%
4,CC(C)NC(=S)N1CCN(S(C)(=O)=O)CC1,8.23%
5,COc1ccccc1-c1cc(=O)c2c(O)ccc([N+](=O)[O-])c2o1,4.67%
6,C=CCn1c(SCC(=O)NCc2ccccc2)nnc1C1CCCCC1,9.62%
7,O=C(NC(=O)N1CCC2(CC1)OCCO2)c1ccc(Cl)cc1,18.3%
8,CC(C)(O)CCC(C)(C)O,11%
9,CCn1nnnc1-c1ccc(OC)c(S(=O)(=O)Nc2ccc(S(N)(=O)=O)cc2)c1,8.72%
10,COc1ccc(N/C(=C/[N+](=O)[O-])SC)cc1,10.8%
11,Cc1csc(=O)n1CCC(=O)OCC(=O)NNC(=O)c1ccc(Br)cc1,3.41%
12,CCC(=O)N1CC23C=CC(CC2CC12CCCCC2)O3 (stereo not shown),-7.05%
13,NC(=O)c1cccc(NC(=O)CCCCC(=O)Nc2cccc(C(N)=O)c2)c1,10.5%
14,O=C(CSc1nc(-c2ccccc2)cc(=O)[nH]1)Nc1ccc(Br)cc1,12.9%
15,O=C(CC12CC3CC(CC(C3)C1)C2)N1CCCOC1,-1.93%
16,Cc1ccc(S(=O)(=O)NCCC(=O)NNC(=O)c2ccccc2O)cc1C,-9.68%
17,CCOC(=O)c1c(CC(C)C)csc1NC(=O)C(C)C,6.76%
18,CC(=O)Nc1cccc(C(=O)N2CCN(Cc3ccccc3)CC2)c1,12.2%
19,Cc1noc(C)c1COC(=O)c1csc2c1CCC(C)C2 (stereo not shown),1.62%
20,C/C(=N\Nc1nnc(C)c(=O)[nH]1)C(=O)O,10.7%
21,Cc1ccc(NC(=O)C(OC(=O)c2ccc(F)cc2)c2ccccc2)cc1Cl (stereo not shown),7.06%
22,CNc1c([N+](=O)[O-])cnn1-c1ccc(Cl)cc1,12.5%
23,CCCc1nnc(SCC(=O)Nc2ccc(C(=O)OCC)cc2)o1,11.2%
24,COc1ccc(NC(=O)Nc2cccs2)cc1Cl,5.34%

row,SMILES,"hERG current change (%, negative = inhibition) at 1uM"
1,COc1ccc(-c2cc(=O)oc3cc(OC(C)C(=O)Nc4ccc(CN5CCOCC5)cc4)ccc23)cc1 (stereo not shown),13.3%
2,Cc1cc(-c2ccc(N3CCOCC3)cc2)nc2ccccc12.Cl,7.84%
3,CC1CCCN(C(=O)CSCC(=O)Nc2nc(-c3cccs3)cs2)C1 (stereo not shown),6.95%
4,O=C1c2ccccc2C(=Nc2ccccc2)C1c1cccc(Br)c1 (stereo not shown),7.85%
5,Cc1ccc2nc(C3CCCN(C(=S)Nc4cccc(C)c4C)C3)[nH]c2c1 (stereo not shown),10%
6,CN1CCN(c2ccc(NC(=S)NC(=O)c3cccc4c(Br)cccc34)cc2)CC1,28.8%
7,c1nnc(NC2=NCCC2)s1,4.26%
8,Cc1ccc(NC(=O)c2ccc(N3C(=O)C4CC=C(Cl)CC4C3=O)cc2)cc1 (stereo not shown),14.3%
9,COC(=O)CC1C(=O)NCCN1C(=S)Nc1cc(C)cc(C)c1 (stereo not shown),9.96%
10,Oc1ccc(-c2cccc(-c3ccc(O)cc3)c2)cc1,11.9%
11,O=C(CSc1nnc(C2COc3ccccc3O2)o1)N1CCOCC1 (stereo not shown),7.4%
12,CCCCn1nnnc1SCC(=O)N1CCOCC1,9.21%
13,c1ccc(Nc2nc(-c3cccs3)cs2)nc1,3.52%
14,Cc1cc(C)nc(OC(=O)c2ccc(Cl)cc2Cl)n1,8.05%
15,CS(=O)(=O)N1CCN(C(=O)c2ccc(F)cc2)CC1,-12%
16,Cc1ccc(NC(=O)Cn2c(CCC(=O)O)ccc2-c2ccc(Cl)cc2)cc1,12.6%
17,COC(=O)c1ccc(-n2cncn2)c([N+](=O)[O-])c1,12.9%
18,CCCOc1ccc(NCC(=O)Nc2ccc(C)cc2C)cc1,28.3%
19,COc1cccc(NC(=O)Cn2nnc(C(=O)NCCc3ccccc3)c2N)c1,10.1%
20,COc1cc(C)c(Cl)cc1S(=O)(=O)NCc1ccccn1,10.7%
21,CN1C=CC=C/C1=C1\SC(=S)N(C2CCCCC2)C1=O,-3.62%
22,Cc1ccc(S(=O)(=O)Nc2ccccc2C(=O)Nc2nc(-c3ccc(F)cc3)cs2)cc1,14.7%
23,C=CCOc1ccc(C2C(C(=O)c3ccco3)=C(O)C(=O)N2Cc2cccnc2)cc1 (stereo not shown),10.1%
24,O=C(Cc1ccccc1)Nc1ccccc1C(=O)O,7.71%

row,SMILES,"hERG current change (%, negative = inhibition) at 1uM"
1,COc1ccc(OC)c(N(CC(=O)Nc2cccnc2)S(C)(=O)=O)c1,14.4%
2,COc1cccc(CC(NC(C)=O)C(=O)NC2CCN(c3c(Cc4ccccc4)c(C)nc4ncnn34)CC2)c1OC (stereo not shown),4.46%
3,COc1ccc(F)cc1S(=O)(=O)NC(Cc1ccccc1)C(N)=O (stereo not shown),12.8%
4,COC(=O)C1C(=O)c2c([nH]c(C(=O)OCCOC(C)C)c2C)CC1C (stereo not shown),1.2%
5,CC(C)OC(=O)Cn1c(=O)sc2ccccc21,-2.67%
6,CCOC(=O)Cc1csc(NC(=O)CCNS(=O)(=O)c2ccc3c(c2)CCC(=O)N3)n1,10.8%
7,Cc1ccc(S(=O)(=O)N2CCN(C(=O)N(C)C)CC2)cc1C,12.7%
8,Cc1cc(NC(=O)CSc2nncc(=O)n2N)no1,6.99%
9,CCc1ccc(S(=O)(=O)NCC(O)COc2ccc(OC)cc2)cc1 (stereo not shown),8.34%
10,COc1ccc(NS(=O)(=O)c2ccc3c(c2)n(C)c(=O)n3C)cc1,10.5%
11,CCOc1ccc(NC(=S)Nc2cccc3cnccc23)cc1,2.53%
12,COc1cccc2cc(C(=O)N3CCN(c4ccccc4F)CC3)c(=O)oc12,9.64%
13,COc1cc2nc(CN(C)Cc3ccc(C(C)(C)C)cc3)[nH]c(=O)c2cc1OC,-3.91%
14,O=[N+]([O-])c1ccc(NC(=S)N/C(=N/CS(=O)(=O)c2ccccc2)c2ccccc2)cc1,11%
15,COc1cc(/C=C/C(=O)NCCN2CCOCC2)cc(OC)c1OC,11.5%
16,Nc1nc(SCC(=O)Nc2ccc3c(c2)CCC3)n[nH]1,9.58%
17,O=[N+]([O-])c1ccccc1CCl,12.3%
18,CCc1ccc(OCC(=O)NC2CCCCC2)c(Br)c1,11.9%
19,CCOc1ccc(N(CC(=O)OC)S(=O)(=O)c2ccc(OC)c(OC)c2)cc1,-0.463%
20,CC(=O)NC(=S)Nc1ccc(S(=O)(=O)Nc2ncccn2)cc1,15%
21,O=C(OCc1ccc(Cl)cc1)c1cccnc1Cl,11.8%
22,CC(=O)Nc1ccc(NC(=O)COC(=O)/C(=C/c2ccccc2)n2nnnc2C)cc1,8.75%
